# Data as given in publication PMC4336329 (PLoS ONE, 2015).
# The campaign covered roughly 310,000 compounds. About 2,200 (0.71%) showed an effect of 50% or more. The effect is printed as a negative number. The list shows a part of the results.
# Molecular target: human ether-à-go-go-related gene (hERG) potassium channel (human, UniProt Q12809)
# Test: primary screen, population patch clamp on CHO cells stably expressing hERG
# Sequence of human ether-à-go-go-related gene (hERG) potassium channel (Q12809 whole entry, looked up): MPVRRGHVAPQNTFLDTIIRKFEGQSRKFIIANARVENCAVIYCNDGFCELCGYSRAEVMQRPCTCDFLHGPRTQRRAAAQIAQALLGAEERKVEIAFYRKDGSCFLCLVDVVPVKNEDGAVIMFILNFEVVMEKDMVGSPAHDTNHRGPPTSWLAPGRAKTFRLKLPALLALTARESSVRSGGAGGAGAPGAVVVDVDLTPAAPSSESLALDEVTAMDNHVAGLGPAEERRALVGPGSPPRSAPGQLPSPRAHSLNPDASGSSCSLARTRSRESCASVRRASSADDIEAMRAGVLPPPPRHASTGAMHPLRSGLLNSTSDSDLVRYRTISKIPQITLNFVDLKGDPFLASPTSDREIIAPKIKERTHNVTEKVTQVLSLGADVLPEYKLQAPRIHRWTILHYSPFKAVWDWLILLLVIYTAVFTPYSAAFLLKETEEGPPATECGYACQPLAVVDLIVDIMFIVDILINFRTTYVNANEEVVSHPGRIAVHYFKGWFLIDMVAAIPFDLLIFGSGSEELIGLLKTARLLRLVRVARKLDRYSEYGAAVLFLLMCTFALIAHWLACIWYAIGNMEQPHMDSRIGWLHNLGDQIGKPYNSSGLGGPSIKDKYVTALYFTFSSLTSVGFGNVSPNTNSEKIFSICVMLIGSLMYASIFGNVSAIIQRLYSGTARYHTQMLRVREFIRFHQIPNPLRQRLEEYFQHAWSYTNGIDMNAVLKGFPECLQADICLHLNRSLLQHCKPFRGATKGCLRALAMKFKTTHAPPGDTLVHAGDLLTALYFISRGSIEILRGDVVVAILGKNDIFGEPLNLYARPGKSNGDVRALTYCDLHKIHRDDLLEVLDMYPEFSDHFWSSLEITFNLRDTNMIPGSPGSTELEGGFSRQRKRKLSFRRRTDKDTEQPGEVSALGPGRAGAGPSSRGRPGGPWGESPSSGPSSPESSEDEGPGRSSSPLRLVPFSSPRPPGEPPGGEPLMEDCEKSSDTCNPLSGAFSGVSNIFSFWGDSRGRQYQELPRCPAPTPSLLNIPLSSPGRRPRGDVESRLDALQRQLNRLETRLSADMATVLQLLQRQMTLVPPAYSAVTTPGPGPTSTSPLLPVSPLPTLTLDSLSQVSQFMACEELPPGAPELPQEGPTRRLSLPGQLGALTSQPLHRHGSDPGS
row,Structure (SMILES),"hERG current change (%, negative = inhibition) at 1uM"
1,Cc1nn(C)c(C(=O)NNC(=S)NC2CCCCC2)c1Cl,1.45%
2,COc1ccccc1NC(=O)Cn1c(C)cc(=O)c2cccc(OC)c21,4.22%
3,O=C(c1ccc(Cl)c([N+](=O)[O-])c1)N1CCCc2ccccc21,8.52%
4,CN(CC(=O)Nc1cccc(F)c1)C(=O)c1ccc(OCC2CCCO2)cc1 (stereo not drawn),1.5%
5,COc1ccc(C(CNC(=O)c2cccc(NS(=O)(=O)c3ccc(C)c(F)c3)c2)N2CCOCC2)cc1 (stereo not drawn),7.97%
6,CN(C)C(CNC(=O)CCCOc1ccccc1)c1ccco1 (stereo not drawn),13%
7,CCCN1C(=O)C(Cc2nc3ccccc3c(=O)n2-c2ccccc2)c2ccccc21 (stereo not drawn),18.3%
8,O=C(N/C(=C\c1cccnc1)C(=O)N1CCOCC1)c1ccco1,2.72%
9,C=CCON/C(CCC)=C1\C(=O)CC(C)(C)CC1=NC,18.6%
10,C=CCn1c(COc2ccc(Cl)cc2)nnc1SCC(=O)Nc1ccc(S(N)(=O)=O)cc1,1.47%
11,Cc1ccc(S(=O)(=O)N(C)C)cc1NC(=O)COC(=O)C1(c2ccccc2)CC1,10.9%
12,O=C(CSc1nc2ccccc2o1)N/N=C/c1ccccc1C(=O)O,12.5%
13,Cc1ccc(C)c(C(=O)CC2(O)C(=O)Nc3ccccc32)c1 (stereo not drawn),4.21%
14,CN(C)C(CNC(=O)c1ccc(NC(=O)c2cccs2)cc1)c1ccccc1 (stereo not drawn),13.8%
15,Cl.Fc1ccc(Nc2nc(N3CCOCC3)nc(N3CCOCC3)n2)cc1,11.1%
16,COc1cccc(NC(=O)c2cc(-c3cccnc3)nc3c(Cl)cccc23)c1,7.59%
17,COc1ccc(C2C(C(C)=O)=C(C)N=c3s/c(=C\c4ccc5c(c4)OCO5)c(=O)n32)c(OC)c1 (stereo not drawn),14.2%
18,CCOc1cc(C(=O)NCc2ccccc2)ccc1OCC(=O)N1CCCCC1,5.79%
19,CCOC(=O)C1=C(COC(=O)CNC(=O)c2ccc(C(C)(C)C)cc2)NC(=O)NC1C (stereo not drawn),17.4%

row,Structure (SMILES),"hERG current change (%, negative = inhibition) at 1uM"
1,O=C(Nc1nc(-c2ccccc2)cs1)C1CCCN(S(=O)(=O)c2ccccc2)C1 (stereo not drawn),-0.82%
2,O=[N+]([O-])c1cccc(S(=O)(=O)N2CCN(S(=O)(=O)N3CCCCCC3)CC2)c1,17.7%
3,O=C(Nc1ccc(N2CCN(Cc3ccccc3Cl)CC2)cc1)c1cccnc1,7.24%
4,OC(c1ccccc1)(c1ccccc1)c1ccncc1,14.6%
5,Cc1ccc(CCNS(=O)(=O)c2ccc(C)cc2)cc1,5.43%
6,Cc1cccc(-n2c(=O)cc(N3CCN(c4ccc(F)cc4)CC3)[nH]c2=O)c1,1.83%
7,CC(C)(C)c1ccc(-n2ncc3c2CCCC3NC(=O)CCN2CCCO2)cc1 (stereo not drawn),5.11%
8,O=C(Nc1ccc(F)cc1)C1CCCN(S(=O)(=O)c2ccc3[nH]c(=O)ccc3c2)C1 (stereo not drawn),-0.985%
9,COc1ccc(CCNC(=O)c2noc(C(C)C)c2[N+](=O)[O-])cc1OC,14.6%
10,CCN(CC)CCCCCOc1ccccc1OC,14%
11,O=C(Cn1c(=S)[nH]c2ccccc2c1=O)NCCc1ccccc1,15.8%
12,O=C(O)CCCCCn1c(SCc2cc(=O)n3ccccc3n2)nc2ccsc2c1=O,6.41%
13,O=C(NCCS(=O)(=O)NCc1ccccc1)c1ccccc1,4.32%
14,O=C1C=C(N2CCOCC2)c2ccccc2C1=O,14.9%
15,COc1ccc2c(c1)c1nnc(SCC(=O)Nc3ccccc3F)nc1n2C,10.7%
16,CCN(CC(=O)Nc1ccc(NC(C)=O)cc1)C(=O)Cc1c(Cl)cccc1Cl,15.9%
17,COc1ccc(N=c2oc3c(OC)cccc3cc2C(=O)NCc2ccco2)cc1OC,0.219%
18,O=C(NC1CCN(C(=S)NCc2ccco2)CC1)c1ccc(F)cc1,-27.1%
19,COc1ccc(Br)cc1CN1CCCCCCC1,-8.39%

row,Structure (SMILES),"hERG current change (%, negative = inhibition) at 1uM"
1,COc1ccc(C2/C(=C(/O)c3ccccc3)C(=O)C(=O)N2c2ccccn2)cc1 (stereo not drawn),11.5%
2,C/C(CC(=O)NCCc1ccccc1)=N\NC(=O)COc1ccc(Br)cc1,6.95%
3,CC(CCc1ccccc1)NC(=O)c1cccc([N+](=O)[O-])c1 (stereo not drawn),10.5%
4,Cc1ccc(/C=C/C(=O)O)cc1S(=O)(=O)N1CCCc2ccccc21,11.7%
5,CCOC(=O)c1cnc2c(cnn2C)c1NCCCN(C)C,-13.5%
6,CCN(CC)C(=O)CSc1nnc(C2CCCCC2)o1,11.4%
7,CCc1noc(C)c1C(=O)Nc1nc(-c2ccccc2)c(C(C)=O)s1,-4.03%
8,Cn1nnc2cc(NC(=O)N3CCN(c4ccccn4)CC3)ccc21,1.73%
9,C1=CC(Cc2cncs2)c2ccccc21 (stereo not drawn),3.45%
10,Cc1ccc(OCC(O)CNC2CCCC2)c(C)c1.Cl (stereo not drawn),21.1%
11,COc1ccc(NC(=O)CSc2nccn2C)cc1S(N)(=O)=O,1.63%
12,C=CCn1c(C)cc(C(=O)COc2nncc3ccccc23)c1C,18.9%
13,O=C(O)c1c(-c2ccccc2)oc2ccc(O)cc12,12%
14,COc1cccc(C(=O)N2CCC(CCC(=O)Nc3cccc(C)c3)CC2)c1,-5.87%
15,CCOc1ccccc1N1CCN(CC(=O)NCCc2ccc(S(N)(=O)=O)cc2)CC1,5.35%
16,CSc1nc2c(c(=O)n1-c1ccc(C)cc1)SCC2,9.39%
17,CC(C)N1CCN(Cc2ccsc2)CC1CCO (stereo not drawn),5.73%
18,CCOC(=O)c1c(NC(=O)COC)sc(C(C)=O)c1C,13.5%
19,CCN(CC)C(=O)c1ccccc1NC(=O)CN1C(=O)c2ccccc2S1(=O)=O,13.2%
